Assay results published in publication PMC6919601, “Identification of Plasmodium dipeptidyl aminopeptidase allosteric inhibitors by high throughput screening” (PLoS ONE, 2019).
In all, about 110,000 compounds went through this assay and about 230 (0.21%) showed an effect of 50% or more. Some of the results follow.

These compounds were tested against DPAP1 (Plasmodium falciparum, UniProt Q8IIJ9) (assay: primary screen, percent inhibition; read by cleavage of a fluorogenic dipeptide substrate; higher = more effect of the substance).
Sequence of DPAP1 (Q8IIJ9 whole entry, looked up): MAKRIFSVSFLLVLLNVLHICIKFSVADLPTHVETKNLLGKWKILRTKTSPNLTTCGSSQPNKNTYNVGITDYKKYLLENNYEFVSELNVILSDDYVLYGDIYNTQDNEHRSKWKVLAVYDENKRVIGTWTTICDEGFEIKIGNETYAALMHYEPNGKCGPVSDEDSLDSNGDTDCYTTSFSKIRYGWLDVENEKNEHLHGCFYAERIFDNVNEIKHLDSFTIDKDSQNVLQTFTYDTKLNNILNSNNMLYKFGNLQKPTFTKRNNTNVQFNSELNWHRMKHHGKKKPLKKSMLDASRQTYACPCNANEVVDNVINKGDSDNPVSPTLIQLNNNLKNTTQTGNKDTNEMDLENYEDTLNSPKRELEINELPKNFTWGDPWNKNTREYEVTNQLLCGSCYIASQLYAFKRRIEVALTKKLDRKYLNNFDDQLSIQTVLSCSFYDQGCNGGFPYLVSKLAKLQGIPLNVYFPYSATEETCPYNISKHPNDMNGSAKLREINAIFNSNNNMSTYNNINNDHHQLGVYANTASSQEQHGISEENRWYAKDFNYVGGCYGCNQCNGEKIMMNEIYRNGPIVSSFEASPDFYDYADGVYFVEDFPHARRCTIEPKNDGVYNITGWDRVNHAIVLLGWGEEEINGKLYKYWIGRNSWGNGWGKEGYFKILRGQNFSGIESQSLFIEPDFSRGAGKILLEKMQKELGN
Set-up: species or system P. falciparum D10 trophozoite lysates; single well
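Also: 30 min substrate incubation versus DMSO and 10 µM JCP410 controls.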

Compound	% Inhibition @ 10 uM
COc1cc(OC)cc(-n2nnc(-c3nc(-c4ccc(Cl)cc4)no3)c2N)c1	3.73%
Oc1ccc(Br)cc1CN1CCCCCCC1	-1.64%
O=C(c1ccc([N+](=O)[O-])cc1Cl)N1CCc2ccccc2C1	-4.4%
COC(=O)c1ccc(C2C=C(c3ccc(OC)cc3)Nc3ncnn32)cc1 (stereo not shown)	0.0842%
C=CCn1cnc2c(cnn2-c2ccc(F)cc2)c1=O	-5.37%
OCc1nc(-c2ccccc2)cs1	-7.25%
Cc1nc2cc(-c3ccccc3)nn2c(C)c1CCC(=O)N1CCC2(CC1)OCCO2	1.26%
CCOC(=O)c1c(NC(=O)c2cccc([N+](=O)[O-])c2)sc(Br)c1-c1ccccc1	-3.98%
Cc1ccc(S(=O)(=O)NCC2CCC(C(=O)NCCCN3CCCC3=O)CC2)cc1 (stereo not shown)	-4.53%
C=C1N(c2ccccc2)C(=O)OC1(C)CC (stereo not shown)	-0.996%
Cc1cccc(NC(=O)CCCC(=O)O)c1	-1.38%
COc1ccc(NC(=O)C2CC(=O)N=C(Nc3nc4ccccc4s3)N2)cc1 (stereo not shown)	1.8%
NC(=O)c1cc(S(=O)(=O)NCCc2ccc(Cl)cc2)cs1	7.08%
Cc1cc(C)c2c(n1)sc1c3ccccc3c(N)nc12	-2.58%
O=C(O)C1CC(=O)N(Cc2ccc(Cl)cc2)/C(=N/c2ccccc2)S1 (stereo not shown)	1.49%
CCCN1CCN(C(=O)Cn2cnc3sc(C)c(S(=O)(=O)N4CCC(C)CC4)c3c2=O)CC1	-2.04%
CC1CCN(c2nc(-c3ccccc3F)nc3ccccc23)CC1	9.62%
O=C(Cn1ncc2ccsc2c1=O)NCCCc1ccccc1	-2.92%
COc1ccccc1Cn1c(SCc2ccc(Cl)cc2)nc2nccnc2c1=O	3.64%
Cc1ccc(-n2nc3c(=O)n(CCCC(=O)NCCCc4ccccc4)nc(C)c3c2C)cc1	0.227%
Cc1c2cnn(CC(=O)N3CCC(N4CCCCC4)CC3)c(=O)c2c(C)n1Cc1ccccc1F	-2.17%
COc1ccccc1/C=C/c1nn2c(C(F)(F)F)nnc2s1	-2.84%
COc1ccc(CN2CC(C(=O)NCCC3=CCCCC3)CC2=O)cc1 (stereo not shown)	-4.83%
Oc1nc2ccccc2s1	1.63%
O=C(CN1CCCCC1)NC1CCc2cc3c(cc21)CCC3 (stereo not shown)	-15.4%

Compound	% Inhibition @ 10 uM
CCn1c(C(=O)N2CCCC(C(=O)NC(C)c3ccc4c(c3)OCCO4)C2)cc2sccc21 (stereo not shown)	-4.34%
Fc1ccc(C2=CC(c3cc(Br)ccc3F)n3nnnc3N2)cc1 (stereo not shown)	3.32%
CC1=C(C(=O)OC2CCCC2)C(c2cccc(Cl)c2Cl)C2=C(O)CCCC2=N1 (stereo not shown)	6.25%
Oc1cccnc1CSc1nc2ccccc2[nH]1	4.54%
CCOc1ccc(/C=C2/N=C(c3cccc(Cl)c3Cl)OC2=O)cc1	-0.77%
COCCNCCn1cnc2c1c(=O)[nH]c(=O)n2C	3.35%
CC(C)C(=O)Nc1ccc(-c2cn3ccsc3n2)cc1	-2.16%
COc1ccc(NC(=O)COc2cc(C)c(Cl)c(C)c2)c(OC)c1	-4.13%
Cc1cc(C)c(C#N)c(SCC(=O)C2CC2)n1	0.0719%
Cc1cccc(NC(=O)c2cccc(F)c2)c1C	5.09%
CCN1CCN(c2cc(SC)nc(-c3ccc(OC)cc3)n2)CC1	-3.37%
CC1CCCCN1CCNC(=O)Cn1ncc2c(Cl)cccc21 (stereo not shown)	-2.88%
O=C(Nc1ccc2[nH]c(-c3cccs3)nc2c1)c1cccs1	4.31%
COc1ccc(C(=O)c2oc3ccccc3c2NC(=O)COc2ccccc2C)cc1	-1.25%
CC(=O)Nc1ccc(C2Nc3cc(C)c(C)cc3N=C3CC(C)(C)CC(O)=C32)cc1 (stereo not shown)	0.751%
CC(=O)N1CCc2c([nH]c3ccccc23)C1c1ccccc1C(F)(F)F (stereo not shown)	2.99%
Cc1ccc(CN2CCSCC2)c(C)c1	1.01%
COc1ccc(C2=NS(=O)(=O)N(C)C(C(=O)N3CCC(C(N)=O)CC3)=C2)cc1	-2.84%
COc1cccc(/C=N/N=C(\N)c2nonc2N)c1O	2.24%
Cc1cc(F)ccc1NCc1ccco1	-1.85%
O=C(CCc1nc(-c2ccccc2)no1)N1CCCCC1	-4.02%
OC1(c2ccc(Br)cc2)CCN(C2CCN(Cc3ccccc3)CC2)CC1	-5.44%
CCOC(=O)c1c(C)oc2c1c(C(c1ccc(F)cc1)N1CCOCC1)c(O)c1ccccc12 (stereo not shown)	-1.4%
COc1ccc(OCc2ccc(C3C(C#N)=C(N)Oc4[nH]nc(C)c43)o2)cc1 (stereo not shown)	-3.63%
Cc1ccccc1Oc1nc2c(C)cccn2c(=O)c1/C=C(\C#N)S(=O)(=O)c1ccc(Cl)cc1	2%

Compound	% Inhibition @ 10 uM
Cn1ccnc1Sc1nc2c(c(=O)n(C)c(=O)n2C)n1Cc1c(Cl)cccc1Cl	3.95%
Cc1nn(CC(=O)NC2CCCC(C)C2C)c(=O)c2cccn12 (stereo not shown)	-5.1%
CC1CCC(N(C)C2CCN(C)CC2)CC1 (stereo not shown)	-1.81%
CCOc1cc2c(cc1OCC)C1C(C(=O)NCc3ccc(C)o3)c3ccccc3C(=O)N1CC2 (stereo not shown)	4.05%
COC(=O)CC1C(=O)NCCN1CC#Cc1ccccc1 (stereo not shown)	-2.44%
COc1ccc(-c2nnc3n(Cc4ccccc4)c(=O)c4ccccc4n23)cc1	3.3%
CCCc1nn(-c2ccc(F)cc2)c(O)c1/C=N/C1CC1	-3.27%
COc1c(S(=O)(=O)n2c(C)nc3ccccc32)ccc(Cl)c1Cl	-3.49%
COc1ccccc1NC(=O)CN(c1ccc(C)cc1)S(=O)(=O)c1ccccc1	-10.2%
CC(C)c1ccc(NC(=O)[C@@H]2C[C@@H]2c2ccccc2)cc1	-1.93%
CCOC(=O)C1CCN(Cc2ccc(OC)c(C)c2)CC1	-0.294%
CSCCCN1CCCC(CO)C1 (stereo not shown)	0.265%
Cc1cccc(NC(=O)CN2C(=O)N/C(=C/c3ccc4c(c3)OCO4)C2=O)c1	-13.4%
CCN1C(=O)c2ccc(C(=O)Nc3cc(C)on3)cc2C1=O	3.86%
COc1ccc(CN2CCN(c3ccccc3F)CC2)cc1O	-5.57%
COc1ccc(-c2cc(-c3ccccc3)nc3sc(C(N)=O)c(N)c23)cc1	76%
CC(C)Cn1c(=O)c2ccccc2n2c(CCC(=O)NCCc3ccccc3)nnc12	-0.692%
CCCCc1n[nH]c(SCC(=O)Nc2nnc(CC)s2)n1	-1.4%
CCOC(=O)C1=C(C)N=c2s/c(=C\c3ccc(C)o3)c(=O)n2C1c1ccccc1Cl (stereo not shown)	-1.66%
CCOc1ccc(C2CC(c3ccc(OC(F)F)cc3)n3ncnc3N2)cc1Cl (stereo not shown)	-7.08%
COc1ccc(/C=C(/C#N)C(=O)Nc2cccc(C(F)(F)F)c2)cc1	-5.38%
COc1ccc(C(=O)N[C@@H](Cc2cc(Cl)c(O)c(Cl)c2)C(=O)NCC#N)cc1	-8.26%
O=C(O)CSC1CCCCC1O (stereo not shown)	0.968%
CC1(C)C=Cc2c(nc3ccccc3c2NCc2ccccc2)C1	3.16%
COc1ccc(C(F)(F)F)cc1NC(=O)c1sc2nc(-c3ccncc3)ccc2c1N	3.5%

Compound	% Inhibition @ 10 uM
CC1CN(C(=O)c2ccc(CNS(=O)(=O)c3cccc(C(F)(F)F)c3)cc2)CC(C)O1 (stereo not shown)	3.56%
Cc1ccc(-c2noc(CNc3cccc(C)c3)n2)cc1	-3.41%
COc1ccc(C(=O)NC2(C(F)(F)F)C(=O)Nc3c2c(=O)[nH]c(=O)n3-c2ccc(C)cc2)cc1 (stereo not shown)	1.93%
COc1cc(C(=O)NC2(C(F)(F)F)NC(=O)N(C)C2=O)cc(OC)c1OC (stereo not shown)	1.91%
COc1ccc(/C=C2\Cc3ccccc3C2=O)c(OC)c1OC	-0.503%
CN1C(=O)C(=N)c2c3ccccc3c(O)c3cccc1c23	-9.52%
CSc1nc(-c2ccccc2)nc(N)c1C(C)=O	-2.47%
Cc1cc(C)nc(Nc2n[nH]c(-c3cccc(Cl)c3)n2)n1	1.92%
Cc1ccc(-n2nc3c(=O)n(CCCC(=O)NCCc4cccs4)nc(C)c3c2C)cc1	-4.57%
CCCCC(=O)N1CCc2cc(OC)c(OC)cc2C1COc1ccc2c(C)cc(=O)oc2c1 (stereo not shown)	2.83%
COc1ccccc1C(=O)Nc1ccc2oc(-c3ccccc3C)nc2c1	2.54%
COc1cc(/C=C/c2nc(C#N)c(N(C)Cc3ccccc3)o2)cc(OC)c1OC	0.895%
COc1ccc(Cl)cc1N(CC(=O)Nc1ccc(Cl)cc1)S(C)(=O)=O	-7.09%
CCOc1ccc2nc(SCc3ccc(OC)cc3)sc2c1	2.8%
CC(O)c1nc2ccccc2n1Cc1ccccc1 (stereo not shown)	2%
CC(C)NS(=O)(=O)c1ccc(N2CCN(CCO)CC2)nc1	1.59%
CC1CCCCC1NS(=O)(=O)c1ccc(S(=O)(=O)N2CCN(c3ncccn3)CC2)cc1 (stereo not shown)	2.21%
O=C(O)CCCN1C(=O)c2ccccc2Sc2ncccc21	1.63%
COc1ccc(-c2c(C)nn3c(N4CCC(C(=O)NC5CCCC5)CC4)cc(C)nc23)cc1OC	-3.7%
Cl/C(=C\c1ccccc1)CN1CCN(c2ccccc2Cl)CC1	3.48%
N#C/C(=C\c1cccs1)C(=O)NCc1cccnc1	14.8%
N#CCNC(=O)[C@H](Cc1ccc(Br)s1)NC(=O)OCc1ccccc1	-4.72%
Cc1cc(C)nc(NC(=O)NS(=O)(=O)Nc2ccc(Br)cc2)n1	-0.999%
CCOc1ccc(C2C(C(=O)c3ccc(OC)cc3)=C(O)C(=O)N2Cc2cccnc2)cc1OC (stereo not shown)	3.8%
Cc1ccc(N2C(N)=C(C#N)C(c3ccc(N(C)C)cc3)C3=C2CCCC3=O)cc1 (stereo not shown)	4.08%
